Test results reported in PubChem BioAssay AID492947 (National Center for Advancing Translational Sciences (NCATS), 2010).
Out of some 330,000 compounds screened, about 80 (0.02%) were called active. Inconclusive results, whose numbers are uncertain, are shown with a selection of clear calls. The call rests on the fitted dose curve; in most records, active means well fitted activation curve with a large enough effect; inconclusive means small, poorly fitted or top-dose-only effect; inactive means flat fitted curve, though single readings scatter. No potency is given beside an inconclusive call; the fits are too rough.

These compounds were tested against Beta-2 adrenergic receptor (Homo sapiens) (UniProt P07550) (assay: qHTS assay of beta-arrestin-biased ligands of beta2-adrenergic receptor). Conditions: beta-arrestin recruitment to beta2AR, cell-based reporter; series mostly up to 46.1 µM.
Description: NIH Molecular Libraries Probe Production Network [MLPCN]
NIH Chemical Genomics Center [NCGC]
PI: Bryan Roth and Bob Lefkowitz
The concept of biased agonism is an emerging concept of molecular pharmacology which proposes that seven transmembrane receptors (7TMRs) or G protein-coupled receptors (GPCRs), exist in multiple signaling conformations and complexes and that ligands (either agonists or antagonists) can induce signaling biased responses for distinct signal transduction cascades.
Furthermore, accumulating evidence over the last decade has drawn attention to a novel function of beta-arrestins as signal transducers that scaffold various signaling molecules upon activation of 7TMRs. […] This beta-arrestin-biased signaling presumably leads to distinct physiological outcomes from those by G protein activation.
Additionally, the active receptor conformations which […] on this beta-arrestin signaling are likely different from those activating G protein signaling
The goal of this screening project will be to discover and optimize novel beta-arrestin-biased ligands for beta2-AR signaling. A luminescent cell-based assay for beta2-AR-mediated agonism, known as the Tango assay, has been validated in which ligand binding of a recombinant beta2-AR and subsequent recruitment of a recombinant beta-arrestin lead to the release of the transcriptional activator tTA, which upregulates transcription of a tTA-responsive luciferase gene. […] Compounds were screened as a concentration-titration series that ranged from 46 microM to 0.6 nM.
NCGC Assay Protocol Summary:
Tango cells were dispensed into white, solid, tissue-culture-treated 1536-well plates at 1500 cells/well in DMEM, containing 1% fetal bovine serum (FBS). Then, 23 nL of compounds or DMSO were delivered to each well using a pin tool. Plates were incubated at 37 degrees C, 5% CO2 for 18 hr. Then 2.5 uL luminescent substrate mix (in-house prepared: 150 mM Tris-Cl, pH 7.6, 3 mM MgCl2, 1% Triton X-100, 5 mM DTT, 0.5 mM CoA, 0.15 mM ATP, 0.44 mM D-luciferin, final concentrations) was added to each well. Plates were then incubated for 15 minutes at room temperature, and subsequently measured on a ViewLux plate reader for luminescent signal using a clear filter with a 10 second exposure and 2x binning. The %Activity was determined from the corrected luminescence values.
Concentration-response curves were fitted to the signals arising from the resulting luminescence. The concentration-effect curves were then classified based on curve quality (r2), response magnitude and degree of measured activity, and compounds were subsequently categorized based on their curve class.
Keywords: biased agonism, beta2-AR, beta-arrestin, GPCR, 7TMR, Tango, luminescence, MLSMR, MLPCN, NIH Roadmap, qHTS, NCGC
Further: nearly all actives have a fitted effect of over 65% in size.
Potency means the concentration at half of the fitted maximal effect; tags describe the fitted curve by direction and shape.

Sequence of UniProt P07550 (P07550 whole entry, looked up): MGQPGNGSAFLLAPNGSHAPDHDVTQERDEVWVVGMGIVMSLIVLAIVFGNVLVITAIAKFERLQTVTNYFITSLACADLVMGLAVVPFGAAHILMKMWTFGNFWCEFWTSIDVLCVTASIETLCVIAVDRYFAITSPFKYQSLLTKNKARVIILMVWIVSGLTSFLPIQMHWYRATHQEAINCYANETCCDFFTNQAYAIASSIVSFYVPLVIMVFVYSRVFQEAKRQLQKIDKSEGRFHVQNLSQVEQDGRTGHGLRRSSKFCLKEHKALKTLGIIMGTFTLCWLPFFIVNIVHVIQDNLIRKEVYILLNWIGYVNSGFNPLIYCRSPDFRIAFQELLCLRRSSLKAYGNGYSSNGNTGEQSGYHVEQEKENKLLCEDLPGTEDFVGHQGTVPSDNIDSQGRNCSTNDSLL

Compound	Potency
CCc1cc(=O)oc2cc(OC(C)C(=O)NCC(O)c3ccccc3)c(Cl)cc12 (centres undefined)	inactive
C=C(C)C(=O)OC1(C(F)(F)F)Oc2cc(C)ccc2NC1=O (centres undefined)	inconclusive [rising, single point]
COC(=O)c1c(NC(NC(=O)C(C)C)C(Cl)(Cl)Cl)sc2c1CCC2 (centres undefined)	inactive
CCCc1cc(=O)n2[nH]c(-c3ccc(Cl)cc3)cc2n1	inconclusive [rising, single point]
Cc1cc(C)cc(OCCn2nnc3ccccc32)c1	inconclusive [rising, single point]
O=C(/C=C\c1ccco1)Oc1cccc2cccnc12	inconclusive [rising, single point]
Cc1cccc(C)c1-n1c(C)cc(/C=N/NC(N)=S)c1C	inconclusive [rising, single point]
CC1=C(C)/C(=N\OS(=O)(=O)c2ccccc2)C=CC1=O	inconclusive [rising, single point]
CCOC(=O)/C=C/C(=O)Nc1ccccc1C(=O)NC1CCCCC1	inconclusive [rising, single point]
O=C(Nc1cccc2ccccc12)N1N=CCC1c1ccccc1 (centres undefined)	inconclusive [rising, single point]
CO/C=C\C=C/c1nnn(-c2ccc(Cl)cc2)n1	inconclusive [rising, single point]
O=C(Cn1c(=O)c2sccc2n(Cc2cccc([N+](=O)[O-])c2)c1=O)NCCc1ccccc1	inconclusive [activator, partial curve]
O=C(c1ccc([N+](=O)[O-])cc1[N+](=O)[O-])N1CCCC1	inactive
C/C(CCc1ccccc1)=N\NC(=S)NCCc1ccccc1	inconclusive [rising, single point]
COc1ccc(/C=N/NC(=S)Nc2ccccc2)cc1	inconclusive [activator, partial curve]
CCNc1nc(-c2cc3ccccc3o2)cs1	inconclusive [rising, single point]
COC(=O)N1C(=O)[C@@](c2ccc(OC)cc2)(C(C)C)N1C(=O)OC	inconclusive [rising, single point]
Cc1ccc(NC(=O)CCN2CCN(C/C=C/c3ccccc3)CC2)cc1C	inconclusive [rising, single point]
CCCC1CCC(=NNC(=S)NCCc2ccccc2)CC1 (centres undefined)	inconclusive [rising, single point]
COc1ccc(OCC(O)CN2CCN(c3ccccc3)CC2)cc1 (centres undefined)	inconclusive [rising, full curve, poor fit]
CNC(=S)N/N=C/c1cc(C)ccc1C	inconclusive [rising, single point]
CCc1cccc(CC)c1-n1c(SCC(=O)N2CCc3ccccc32)nc(O)cc1=O	inactive
CC(OC(=O)Cc1ccccc1[N+](=O)[O-])C(=O)Nc1ccc(Cl)cn1 (centres undefined)	inconclusive [rising, single point]
CC(=O)c1ccc(N2CCN(C(=O)C3CCCN(S(=O)(=O)c4c(C)[nH]c(=O)[nH]c4=O)C3)CC2)cc1 (centres undefined)	inconclusive [rising, single point]
OCCN1CCN(Cc2cc(Cl)c3cccnc3c2O)CC1	inconclusive [activator, full curve]

Compound	Potency
O=C(C[n+]1cccc(CNC(=O)c2ccc(OC(F)F)cc2)c1)Nc1cccc(C(F)(F)F)c1	inactive
c1ccc2[nH]c(NN=C3CCCCCC3)nc2c1	inconclusive [rising, single point]
S=c1[nH]c(-c2ccccc2)cn1/N=C/c1cccs1	inconclusive [rising, single point]
CNc1sc(C(=O)c2cccs2)c(N)c1-c1nc2ccccc2s1	inconclusive [rising, single point]
C/C(=N\NC(=O)CNC(=O)c1cccc(F)c1)c1ccc2ccccc2c1	inactive
COc1cc(/C=N/NC(=O)NC2CCCCC2)cc(OC)c1O	inactive
COc1ccc(C(C)=O)cc1CSc1ccc2c(c1)OCCO2	inactive
CCOC(=O)C1CCCN(CCC(C)c2ccccc2)C1 (centres undefined)	inactive
Oc1ccc(-c2csc(Nc3cccc4ccccc34)n2)cc1O	inactive
O=C(CSc1n[nH]c(=O)n1-c1cccnc1)N1CCOCC1	inconclusive [rising, single point]
O=C1CCCC/C=C\C[C@H](CC(=O)N(CCO)Cc2ccccc2)C(=O)NCCO1	inconclusive [rising, single point]
Cc1nonc1NC(=O)CSc1nc2ccccc2o1	inconclusive [rising, single point]
C=CCn1c(=O)/c(=C2/Sc3cc(OC)ccc3N2C)s/c1=C1\C(=O)N(CC)C(=S)N1C	inactive
CCOC(=O)c1c(C)nc2c(c1-c1ccc(OC)cc1)C(=O)CC(C)(C)C2	inconclusive [rising, single point]
c1coc(CNc2nc3nonc3nc2NCc2ccco2)c1	inconclusive [rising, single point]
CC1=C/C(=N\NC(=S)Nc2cccnc2)CC(C)(C)C1	inconclusive [rising, single point]
C[C@H]1CN([C@@H](C)CO)C(=O)Cc2cc(NC(=O)CCC(F)(F)F)ccc2O[C@H]1CN(C)Cc1ccc(-c2ccccc2)cc1	inconclusive [rising, single point]
CC(C)(C)NC(=S)NNC(=O)c1cccc(Br)c1	active: 6.31 µM
Clc1ccccc1Nc1c2c(nc3ncnn13)CCC2	inactive
NC(=S)NN=C1C2CC3CC(C2)CC1C3	inconclusive [rising, single point]
CN(C)CCNC(=O)c1cc(Br)ccc1Cl	inactive
CC(Oc1ccc(Br)cc1)C(=O)Nc1nc(-c2ccccn2)cs1 (centres undefined)	inconclusive [rising, single point]
CC/C(=N\NC(=S)NC(C)C)c1ccc(OC)c(OC)c1	inconclusive [rising, single point]
CC(NCCc1ccc(O)cc1)C(O)c1ccc(O)cc1 (centres undefined)	inconclusive [activator, partial curve]
CCC(=O)NC(C)c1cc(Cl)c2cccnc2c1O (centres undefined)	inconclusive [rising, single point]

Compound	Potency
CC(=O)c1c(N2CCN(CCO)CC2)nc(=S)n(-c2ccccc2)c1C	inactive
COc1cc2c(cc1OC)CN(C(=O)CN1C(=O)c3ccc([N+](=O)[O-])cc3C1=O)CC2	inconclusive [rising, single point]
O=[N+]([O-])c1ccc(O)c2ncccc12	inconclusive [rising, full curve, poor fit]
Cc1cc(C)nc(S/C=C/C(=O)c2ccccc2)n1	inconclusive [rising, single point]
O=C(/C=C/c1ccc(Cl)cc1)NC(=S)Nc1ccccc1C(=O)O	inconclusive [rising, single point]
O=C(N/N=C/C(Br)=C/c1ccccc1)c1n[nH]c2c1CCC2	inconclusive [rising, single point]
O=C(O)CCC(=O)N1N=C(c2ccccc2)CC1c1ccc2nccnc2c1 (centres undefined)	inconclusive [rising, single point]
O=C(/C=C/Sc1ncn[nH]1)c1ccc(Cl)cc1	inconclusive [rising, single point]
COCCCNC(=S)N/N=C/c1cccc(OC)c1O	inconclusive [activator, full curve]
COc1ccc(CNC(=O)C(c2ccco2)N(Cc2ccccc2)C(=O)Cc2cccs2)cc1 (centres undefined)	inactive
CN1C(=S)SC(C)(C)C1(C)NO (centres undefined)	inconclusive [rising, single point]
C=CC[C@@H](CC(=O)N(CCO)Cc1ccccc1)C(=O)NC[C@H](OC(=O)[C@@H](CC=C)Cc1ccc(F)cc1)c1ccccc1	inactive
CCCc1ccc(-c2cc(C(=O)N3CCN(c4ccccn4)CC3)c3ccccc3n2)cc1	inactive
Cc1[nH]c2ccccc2c1CCNC(=O)c1ccc2c(c1[N+](=O)[O-])C(=O)c1ccccc1C2=O	inactive
C/C(=N\NC(=S)NCc1ccccc1)c1ccccc1F	inconclusive [rising, single point]
COc1cc(/C=N/NC(N)=S)ccc1OC(=O)c1ccc(C)cc1	inconclusive [rising, single point]
O=C(Nc1nccs1)C1CCN(S(=O)(=O)c2c(Cl)cccc2Cl)CC1	inactive
C=CCN1CCc2cc(O)c(O)cc2C(c2ccccc2)C1 (centres undefined)	inconclusive [rising, single point]
O=C(O)CCCCCCCCCC(=O)c1cccs1	inactive
O=C(OCc1ccc([N+](=O)[O-])cc1Cl)c1cnccn1	inconclusive [rising, single point]
FC(F)(F)c1ccc(Cl)c(-n2c(Cc3cccs3)n[nH]c2=S)c1	inconclusive [rising, single point]
COc1ccc(/C=C/C(=O)NC(=S)NNC(=O)c2cccnc2)cc1OC	inactive
C=CCNC(=S)N/N=C/c1ccc(C)cc1C	inconclusive [activator, full curve]
COc1cc(C(=S)N2CCN(c3ccccc3Cl)CC2)cc(O)c1O	inactive
